Reference: PubChem BioAssay AID2100 (National Center for Advancing Translational Sciences (NCATS), 2009)
The campaign covered roughly 300,000 compounds. About 1,200 (0.4%) were called active. Inconclusive means that the source gave no clear call. Such entries were picked first, then a sample of the others. The call rests on the fitted dose curve; in most records, active means well fitted inhibition curve with a large enough effect; inconclusive means small, poorly fitted or top-dose-only effect, or another doubt; inactive means no such curve, though single readings can be large or run the other way. Potencies of inconclusive entries are doubtful fits and often do not repeat. More than one record can exist for a structure, and the calls need not agree.

Molecular target: Lysosomal alpha-glucosidase (Homo sapiens) (UniProt P10253)
Assay: qHTS Assay for Inhibitors and Activators of Human alpha-Glucosidase Cleavage of Glycogen;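 on activity change, negative = inhibition: 0% = full enzyme reaction and -100% = no-enzyme basal signal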
Conditions: recombinant GAA, glycogen substrate, Amplex Red glucose oxidase fluorescence; activity change, negative = inhibition: at 76.4 µM (top of the series) unless noted
Method in brief: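 qHTS, 1536-well; enzyme 4 nM final; cpd up to 77 uM; substrate bovine liver glycogen 30 ug; 50 mM citrate/phosphate pH 5.0, 0.01% Tween-20; 37 C, 40 min; Amplex Red detection 45 min RT; Hill fit → AC50.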
Potency means the concentration at half of the fitted maximal effect.

Q: For `O=S(=O)(c1cccc(-c2csc(N/N=C/c3ccco3)n2)c1)N1CCOCC1`, which Potency is on record?
A: inconclusive: 12.6 µM [inhibitor, partial curve]

Q: With `O=C(CCS(=O)(=O)c1nc(-c2cccs2)cc(C(F)(F)F)n1)Nc1ccc(Br)cc1` as the molecule, how does the Potency read?
A: inconclusive: 50.1 µM [inhibitor, partial curve]

Q: Which Potency does the source give for `COc1cc(/C=N/NC(=O)c2cccc(N3CCCC3=O)c2)ccc1O` here?
A: inconclusive: 35.5 µM [inhibitor, single point]

Q: With `O=C(NCc1n[nH]c(=S)n1-c1cccc(C(F)(F)F)c1)c1ccc(S(=O)(=O)N2CCCCC2)cc1` as the molecule, how does the Potency read?
A: inconclusive: 39.8 µM [inhibitor, single point]

Q: How did the Potency turn out when `O=S(=O)(c1ccc(NC(=S)NN=C(Cc2ccccc2)Cc2ccccc2)cc1)N1CCOCC1` was run?
A: inconclusive: 17.8 µM [inhibitor, partial curve]

Q: How did the “activity change, negative = inhibition” value turn out when `CCc1ccc(-n2c(SCc3nc(-c4cc(OC)ccc4OC)no3)nnc2-c2ccccc2)cc1` was run?
A: inactive: -18.1% [at 76.3 µM]

Q: How did the Potency turn out when `S=c1[nH]nc(NCCc2ccccc2)s1` was run?
A: inconclusive: 17.8 µM [inhibitor, partial curve]

Q: For `CC(=O)Nc1ccc(Nc2nc3c(S(=O)(=O)c4ccc(C)c(C)c4)nnn3c3ccccc23)cc1`, which Potency is on record?
A: inconclusive: 12.6 µM [activator, partial curve]

Q: With `COc1ccccc1NCC(=O)NNC(C)C(=O)Nc1cccc(Cl)c1` (configuration not stated) as the molecule, how does the Potency read?
A: inconclusive: 7.94 µM [inhibitor, full curve]

Q: `Cc1noc(C)c1S(=O)(=O)Nc1ccc(C(=O)Nc2ccc(C(C)C)cc2)cc1` was tested. Which Potency did it give?
A: inconclusive: 89.1 µM [inhibitor, partial curve, poor fit]

Q: For `CCOC(=O)c1ccc(NC(=O)CC2Nc3cccc4cccc(c34)NC2=O)cc1` (configuration not stated), which Potency is on record?
A: inconclusive: 12.6 µM [inhibitor, partial curve]

Q: Which Potency does the source give for `CCCCC(=O)Nc1nc(C)c(-c2csc(Nc3cc(OC)ccc3OC)n2)s1` here?
A: inconclusive: 31.4 µM [inhibitor, single point]

Q: `CCOC(=O)C1=C(CC)OC(N)=C(C#N)C1c1ccc(OC)c(C)c1OC` (configuration not stated) was tested. Which Potency did it give?
A: inconclusive: 39.8 µM [inhibitor, single point]

Q: How did the Potency turn out when `COc1cc(-c2cc(=O)c3c(O)c(OC)c(OC)c(O)c3o2)ccc1O` was run?
A: active: 22.4 µM

Q: `O=C(O)C1Sc2[nH]c(=O)sc2C2c3ccc(O)cc3OC(=O)C12` (configuration not stated) was tested. Which Potency did it give?
A: inconclusive: 39.5 µM [inhibitor, single point]

Q: For `CCOC(=O)c1[nH]c2ccccc2c1NC(=S)Nc1cc(C)ccc1C`, which “activity change, negative = inhibition” value is on record?
A: inactive: -19.4%

Q: Which Potency does the source give for `N#Cc1ccsc1NC(=O)CN1CCN(c2ccccc2O)CC1` here?
A: inconclusive: 7.08 µM [inhibitor, full curve]

Q: `N/C(COc1cccc(Cl)c1)=N\NS(=O)(=O)c1ccccc1` was tested. Which Potency did it give?
A: inconclusive: 20 µM [inhibitor, partial curve]

Q: `COc1cc(/C=C2\CCCc3c2nc2ccccc2c3C(=O)O)cc(OC)c1O` was tested. Which Potency did it give?
A: inconclusive: 28.2 µM [inhibitor, partial curve]

Q: How did the “activity change, negative = inhibition” value turn out when `COc1ccc(NC(=O)C2=NN(C3CCS(=O)(=O)C3)C(=O)CC2)cn1` (configuration not stated) was run?
A: inactive: -15.6%

Q: How did the Potency turn out when `COc1cc(OC)cc(C(=O)Nc2ccc3nc4c(c(Nc5ccc(OC)c(OC)c5)c3c2)CCCC4)c1` was run?
A: inconclusive: 10 µM [inhibitor, full curve]

Q: How did the Potency turn out when `CNC(=S)N/N=C/c1ccc(N2CCOCC2)s1` was run?
A: inconclusive: 3.98 µM [inhibitor, partial curve]

Q: How did the Potency turn out when `CCCCNC(=O)CC1Nc2cc(C)c(C)cc2NC1=O` (configuration not stated) was run?
A: inconclusive: 31.6 µM [activator, single point]

Q: How did the Potency turn out when `Cc1cccc(C)c1Nc1c(-c2ccc(N3CCOCC3)cc2)nc2ncccn12` was run?
A: active: 20 µM

Q: How did the Potency turn out when `O=C(O)c1ccccc1C(=O)NNc1ccc(Cl)cc1` was run?
A: active: 11.2 µM

Q: Which Potency does the source give for `O=C(NNC(=S)Nc1ccc(Br)cc1Cl)c1ccco1` here?
A: inconclusive: 31.4 µM [inhibitor, partial curve]

Q: With `CC(C)(C)c1cc(CN2CCN(CCC#N)CC2)cc(C(C)(C)C)c1O` as the molecule, how does the Potency read?
A: inconclusive: 10 µM [inhibitor, partial curve]

Q: With `O=C(O)c1cccc(N/N=C/c2sc(N3CCOCC3)nc2-c2ccccc2)c1` as the molecule, how does the Potency read?
A: inconclusive: 50.1 µM [inhibitor, single point]

Q: Which Potency does the source give for `Cc1ccc(NNC(=O)c2c(F)cccc2Cl)cc1Cl` here?
A: inconclusive: 12.6 µM [inhibitor, partial curve]

Q: `C(=N\Nc1ccc2ccccc2n1)/c1ccc2c(c1)OCCO2` was tested. Which “activity change, negative = inhibition” value did it give?
A: inactive: -28.5%

Q: How did the “activity change, negative = inhibition” value turn out when `Cc1cccc(CN2CCN(c3nc4nonc4nc3NC3CC3)CC2=O)c1` was run?
A: inactive: -2.12%

Q: Which Potency does the source give for `COc1ccc(NC(=O)Nc2sc(=S)n(C)c2C)cc1` here?
A: inconclusive: 15.7 µM [inhibitor, partial curve]

Q: Which Potency does the source give for `Cc1ccn2c(Nc3ccccc3C)c(-c3ccc(N4CCOCC4)cc3)nc2c1` here?
A: inconclusive: 3.55 µM [inhibitor, full curve]

Q: `O=C(N/N=C/C=C\c1ccccc1[N+](=O)[O-])c1ccccn1` was tested. Which Potency did it give?
A: inconclusive: 39.5 µM [inhibitor, single point]

Q: `COc1ccc(OC)c(NC(=S)N2CCc3ccccc3C2)c1` was tested. Which Potency did it give?
A: inconclusive: 39.8 µM [inhibitor, partial curve]

Q: `Cc1ccc(C)c(NNC(N)=S)c1` was tested. Which Potency did it give?
A: active: 9.92 µM

Q: `CN(N)c1ccc2c(C(F)(F)F)cc(C(F)(F)F)nc2n1` was tested. Which Potency did it give?
A: inconclusive: 4.47 µM [inhibitor, full curve]

Q: Which “activity change, negative = inhibition” value does the source give for `O=C(O)c1ccc(N=Cc2c(O)ccc3oc4c(c23)CCCC4)cc1` here?
A: inactive: -4.01%

Q: Which Potency does the source give for `CCOC(=O)/C(=N\Nc1ccc(Br)cc1)N1CCN(c2ccccc2OC)CC1` here?
A: inconclusive: 15.8 µM [inhibitor, partial curve]

Q: For `Cn1c(SCn2nnc3ccccc3c2=O)nc2ccccc2c1=O`, which activity change, negative = inhibition is on record?
A: inconclusive: 31.5% [activator]

Q: Which Potency does the source give for `COc1ccc(NC2SC(=O)N(CC(=O)O)C2=O)cc1` (configuration not stated) here?
A: inconclusive: 12.5 µM [inhibitor, partial curve]

Q: For `Cc1[nH][nH]c(=O)c1C(c1c(C)[nH][nH]c1=O)c1cn(Cc2ccc(Cl)c(Cl)c2)c2ccccc12`, which Potency is on record?
A: inconclusive: 35.5 µM [inhibitor, single point]

Q: For `Cc1cc(C)n2ncc(/C(N)=N/OC(=O)Nc3ccc(Cl)cc3)c2n1`, which Potency is on record?
A: inconclusive: 14.1 µM [inhibitor, partial curve]

Q: With `Cc1cc(C(=O)N/N=C/c2ccc(O)c(O)c2O)c(C)n1-c1ccccc1` as the molecule, how does the Potency read?
A: inconclusive: 11.2 µM [inhibitor, full curve, poor fit]

Q: With `Cc1ccccc1NC(=S)NNC(=O)c1ccco1` as the molecule, how does the Potency read?
A: inconclusive: 11.2 µM [inhibitor, partial curve]

Q: `CCOc1ccc(C2C(C#N)=C(N)N(N(C)C)C3=C2C(=O)CCC3)cc1` (configuration not stated) was tested. Which Potency did it give?
A: inconclusive: 15.8 µM [inhibitor, partial curve]

Q: How did the Potency turn out when `COC(=O)C1=C(C(=O)OC)C(c2cc([N+](=O)[O-])ccc2O)c2sc(=O)[nH]c2S1` (configuration not stated) was run?
A: inconclusive: 35.5 µM [activator, single point]

Q: For `CN1/C(=C\C(=S)NC(=O)c2cccc(Br)c2)C(C)(C)c2ccccc21`, which Potency is on record?
A: inconclusive: 10 µM [inhibitor, partial curve]

Q: How did the Potency turn out when `CC1(C)c2cc(O)ccc2OC1N1CCOCC1` (configuration not stated) was run?
A: inconclusive: 3.55 µM [inhibitor, single point]

Q: For `O=C(c1ccc(Cl)cc1Cl)C1(n2cncn2)Oc2ccccc2C1O` (configuration not stated), which Potency is on record?
A: inconclusive: 8.84 µM [inhibitor, single point]

Q: With `C/C(=N\Nc1cccc([N+](=O)[O-])c1)c1ccccc1O` as the molecule, how does the Potency read?
A: inconclusive: 3.98 µM [inhibitor, full curve]

Q: `C/C(CC(=O)Nc1cc(C)cc(C)c1)=N\NC(=O)c1ccccn1` was tested. Which Potency did it give?
A: inconclusive: 17.8 µM [inhibitor, partial curve]

Q: How did the Potency turn out when `Nc1n[nH]c(N)c1N=Nc1ccccc1F` was run?
A: inconclusive: 11.2 µM [inhibitor, single point]

Q: Which “activity change, negative = inhibition” value does the source give for `O=C(Nc1ccc(OCc2cc(=O)n3c4c(sc3n2)CCCC4)cc1)c1cccc(F)c1` here?
A: inactive: 6.47% [at 76.3 µM]

Q: `COc1ccc(CNC(=O)[C@@H](C)NC(=O)C2CCN(C(=O)[C@@H](N)CCSC)CC2)cc1` was tested. Which Potency did it give?
A: inconclusive: 7.94 µM [inhibitor, partial curve]

Q: For `Fc1ccc2[nH]c3c(NCc4ccccc4)ncnc3c2c1`, which Potency is on record?
A: inconclusive: 44.7 µM [inhibitor, single point]

Q: With `COC(=O)c1ccc2c(=O)n(C3CCCCC3)c(SCC#N)nc2c1` as the molecule, how does the activity change, negative = inhibition read?
A: inconclusive: 27.1% [activator]

Q: Which Potency does the source give for `COc1cc(/C=N\Nc2nc3ccccc3[nH]2)cc(OC)c1OC` here?
A: active: 15.7 µM

Q: How did the Potency turn out when `CCOc1ccc(NCC(=O)Nc2ccc(C)cc2C)cc1` was run?
A: inconclusive: 35.2 µM [inhibitor, single point]

Q: `O=c1c(OC2OC(CO)C(O)C(O)C2O)c(-c2ccc(O)c(O)c2)oc2cc(O)cc(O)c12` (configuration not stated) was tested. Which Potency did it give?
A: active: 12.6 µM

Q: How did the Potency turn out when `O=[N+]([O-])C1C(c2ccccc2)=NOC1c1ccccc1O` (configuration not stated) was run?
A: inconclusive: 10 µM [inhibitor, partial curve]

Q: How did the “activity change, negative = inhibition” value turn out when `Cc1cccc(NC(=S)N(C)C)c1C` was run?
A: inactive: 6.85%

Q: `CCNCc1nc2cc(OC)c(OC)cc2c(=O)[nH]1` was tested. Which Potency did it give?
A: inconclusive: 3.52 µM [inhibitor, partial curve]

Q: `CCc1ccc(S(=O)(=O)/N=C2\C=C(NS(=O)(=O)c3ccccc3)C(=O)c3ccccc32)cc1` was tested. Which “activity change, negative = inhibition” value did it give?
A: inactive: -9.84%

Q: How did the Potency turn out when `CCOP(=O)(OCC)c1nc(/C=C/c2ccccc2)oc1NCc1ccccc1` was run?
A: inconclusive: 28.2 µM [inhibitor, partial curve]

Q: `CCCSc1nnc(Nc2ccccc2C)s1` was tested. Which Potency did it give?
A: inconclusive: 50.1 µM [activator, single point]

Q: Which Potency does the source give for `C(=N\N1CCN(c2ccccc2)CC1)/c1ccccc1` here?
A: inconclusive: 39.8 µM [inhibitor, partial curve]
